Measured values as given in paper PMC4336329 (PLoS ONE, 2015).
About 14,000 (4.5%) of roughly 310,000 compounds showed an effect of 50% or more. Effects have a minus sign here. The list shows a part of the results.

Molecular target: human ether-à-go-go-related gene (hERG) potassium channel (human, UniProt Q12809)
Assay: primary screen, population patch clamp on CHO cells stably expressing hERG
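Also: peak tail current of the secondary pulse compared with the same well before compound.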

human ether-à-go-go-related gene (hERG) potassium channel, sequence (Q12809 whole entry, looked up): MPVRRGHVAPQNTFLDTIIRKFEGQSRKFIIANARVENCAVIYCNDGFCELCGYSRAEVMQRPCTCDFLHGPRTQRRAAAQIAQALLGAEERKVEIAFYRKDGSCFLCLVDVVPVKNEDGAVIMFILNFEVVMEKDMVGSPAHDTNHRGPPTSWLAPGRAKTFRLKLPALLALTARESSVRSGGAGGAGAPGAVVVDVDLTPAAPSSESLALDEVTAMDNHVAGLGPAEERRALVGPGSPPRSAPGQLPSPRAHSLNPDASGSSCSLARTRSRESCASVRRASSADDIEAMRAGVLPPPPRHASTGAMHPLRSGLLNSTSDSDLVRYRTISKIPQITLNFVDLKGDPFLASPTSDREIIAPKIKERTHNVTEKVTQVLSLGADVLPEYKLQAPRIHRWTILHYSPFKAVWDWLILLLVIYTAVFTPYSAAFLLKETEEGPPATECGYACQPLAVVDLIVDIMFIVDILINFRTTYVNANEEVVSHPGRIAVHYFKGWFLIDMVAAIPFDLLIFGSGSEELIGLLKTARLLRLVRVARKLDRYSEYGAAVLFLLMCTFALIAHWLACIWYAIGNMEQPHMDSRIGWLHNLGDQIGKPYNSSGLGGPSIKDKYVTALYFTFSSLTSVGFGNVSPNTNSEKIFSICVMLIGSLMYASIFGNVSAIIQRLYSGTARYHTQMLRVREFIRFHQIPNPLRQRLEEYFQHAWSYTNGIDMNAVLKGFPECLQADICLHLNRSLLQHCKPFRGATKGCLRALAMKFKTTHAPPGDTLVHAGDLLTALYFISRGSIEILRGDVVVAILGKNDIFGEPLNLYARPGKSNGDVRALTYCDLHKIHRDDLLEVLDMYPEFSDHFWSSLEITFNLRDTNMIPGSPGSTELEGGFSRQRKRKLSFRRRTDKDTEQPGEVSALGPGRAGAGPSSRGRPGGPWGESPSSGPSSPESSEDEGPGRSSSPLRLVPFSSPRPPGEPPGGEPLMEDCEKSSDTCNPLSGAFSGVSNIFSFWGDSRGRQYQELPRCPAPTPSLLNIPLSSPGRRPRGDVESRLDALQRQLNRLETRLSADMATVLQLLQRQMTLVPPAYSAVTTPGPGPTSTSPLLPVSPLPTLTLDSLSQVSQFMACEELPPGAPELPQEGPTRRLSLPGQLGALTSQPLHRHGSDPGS

Row | Structure (SMILES) | hERG current change (%, negative = inhibition) at 10uM [%]
1 | C/C(=N\Nc1nc2ccccc2[nH]1)c1ccc(C)o1 | -17.7
2 | C=CCNC(=O)C1CC1(c1cccc(C)c1)c1cccc(C)c1 (centres unmarked) | 6.03
3 | O=C1CS/C(=N/N=C2C3CC4CC(C3)CC2C4)N1 | -11.8
4 | Cc1cc(NC(=O)CC(C)C)c(=O)n(Cc2c(F)cccc2Cl)c1 | -10.9
5 | O=C(Nc1ccccn1)c1ccc(C(=O)Nc2ccccn2)cc1 | 7.84
6 | N/C(=N\OC(=O)c1ccc(Cl)c(Cl)c1)c1cccc(CSc2ccccn2)c1 | 2.93
7 | NC(=S)N/N=C/c1c[nH]c2ccccc12 | -10.9
8 | CCNc1nc(Oc2ccc(=O)n(C)n2)nc(N2CCOCC2)n1 | 13.3
9 | Cc1ccc(-n2ncc3c(=O)n(CC(=O)NC4CCCCC4)cnc32)cc1C | 6.16
10 | CCC(C)NC(=O)c1c(N)n(Cc2ccc3c(c2)OCO3)c2nc3ccccc3nc12 (centres unmarked) | -11.7
11 | Cc1ccc(NC(=O)N2CCC(C(=O)Nc3ccc(C)cc3C)CC2)cc1 | 13.8
12 | C#CC[N+]1(CC#Cc2ccc(C)cc2)CCCCC1.[Br-] | 4.84
13 | Cc1cc(C(=O)N/N=C/c2cc(Br)c(Br)o2)n[nH]1 | 16
14 | N#C/C(=C\c1cc(Cl)cc(Cl)c1O)C(=O)NC1CCCCC1 | -12
15 | Cc1ccc(S(=O)(=O)NN=C2C3CC4CC(C3)CC2C4)cc1 | 2.47
16 | N#Cc1cccn1-c1nccs1 | 6.96
17 | COc1ccc2ccccc2c1CN1CCN(C(=O)c2ccccc2)CC1 | -22.8
18 | CCOc1cc(NC(=S)NCC2CCCO2)c(OCC)cc1NC(=O)C1CC1 (centres unmarked) | 36.2
19 | Cc1ccc(-c2nc(CN(C)C3CCOC3)c(C)o2)s1 (centres unmarked) | 19.7
20 | Cc1cc(C)cc(OCC(=O)N(Cc2ccc(N(C)C)cc2)C2CCS(=O)(=O)C2)c1 (centres unmarked) | -20
21 | O=C(Nc1ccc(C(=O)N2CCCCC2)cc1)C1CCCCC1 | -0.679
22 | O=S(=O)(NCCCCCNS(=O)(=O)c1ccccc1)c1ccccc1 | -2.98
23 | Nc1ccn(-c2ccc(Cl)cc2)c(=O)c1 | 12.8

Row | Structure (SMILES) | hERG current change (%, negative = inhibition) at 10uM [%]
24 | CCOC(=O)c1c(-c2cccc([N+](=O)[O-])c2)csc1NC(=O)CCCOc1ccccc1 | 13.1
25 | CCOc1ccc(NC(=O)CN(C)C(=O)c2cc(-c3ccncc3)nc3ccccc23)cc1OCC | -58.6
26 | Cc1ccc(NCc2nnc(SCC(=O)O)n2Cc2ccccc2)cc1Cl | 11.4
27 | O=C(Nc1nc(=O)n(C(=O)C2CC2)s1)c1ccccc1 | -0.47
28 | CC(C(=O)c1ccc(-c2ccccc2)cc1)[n+]1ccccc1.[Br-] (centres unmarked) | 2.72
29 | O=c1oc2ccccc2c(Nc2ccccc2)c1CN1CCCCC1 | -57.1
30 | Cc1cc(Cl)ccc1OCC(=O)NC1CCCC1 | -22.2
31 | CCCCCCN=C(C)C1=C(O)C(C(=O)OC)C(C)(C)CC1=O (centres unmarked) | -3.25
32 | O=C1CC(c2ccco2)CC(O)=C1C=NCC1NCCc2ccccc21 (centres unmarked) | -25
33 | O=C1CC(Nc2ccc(N3CCOCC3)cc2)C(=O)N1c1ccccc1 (centres unmarked) | 14.9
34 | CCN(CC)S(=O)(=O)c1cccc(C(=O)NCCc2ccccc2)c1 | -30.6
35 | CCc1cccc(OCCCCNCCOC)c1 | -8.6
36 | O=[N+]([O-])c1ccccc1S(=O)(=O)N1CCCC(C(F)(F)F)C1 (centres unmarked) | 6.11
37 | COc1ccc(N2CCN(C(=O)COC(=O)CCOc3cc(C)ccc3C)CC2)cc1 | 0.516
38 | N#CCn1c(CN2CCCC2)nc2ccccc2c1=O | 10.2
39 | COc1ccc(C2C(C#N)=C(N)Oc3cc(C)[nH]c(=O)c32)c(OC)c1OC (centres unmarked) | 9.03
40 | COc1cccc(N2C(=O)c3cccnc3C2O)c1 (centres unmarked) | 13.9
41 | O=C(O)c1cc(-c2ccc3ccccc3n2)nc2ccccc12 | 5.51
42 | COc1ccc(CNC(=O)C/C(C)=N/NC(=O)C23CC4CC(CC(C4)C2)C3)cc1 | -7.55
43 | CC1N(O)C(c2ccc(Cl)cc2Cl)N(O)C1(C)C (centres unmarked) | 10.8
44 | O=C(COC(=O)CN1C(=O)c2ccccc2C1=O)Nc1cccc(F)c1 | -5.95
45 | COc1ccc(CCNC(=O)c2ccc(CS(=O)Cc3ccc(Cl)cc3)o2)cc1OC (centres unmarked) | -26.7
46 | CC(C)N1CCN(C(=O)c2ccc(OC3CCN(CCc4ccccc4)CC3)cc2)CC1 | -0.0142

Row | Structure (SMILES) | hERG current change (%, negative = inhibition) at 10uM [%]
47 | CCC(=O)Nc1ccc(NC(=O)/C=C/c2ccc(Cl)cc2)cc1 | 12.5
48 | CCN(CC)c1ccc(NC(=O)CCN2C(=O)c3ccccc3S2(=O)=O)c(C)c1 | 16.5
49 | CCCc1[nH]n(-c2ccc([N+](=O)[O-])cc2)c(=O)c1C=NCCCn1ccnc1 | -76.4
50 | CN(Cc1ccccc1)C(=O)CN1C(=O)C2C3C=CC(C3)C2C1=O (centres unmarked) | -7.96
51 | COc1ccc(-n2ncc3c(NCCCn4ccnc4)ncnc32)cc1 | -25.3
52 | COc1ccc(CNC(=O)CN(C(=O)c2csnn2)c2cccc3ccccc23)cc1 | -33.9
53 | COc1cc(OC)cc(C(=O)N2CCN(C3CCN(Cc4ccccc4)CC3)CC2)c1.O=C(O)C(=O)O | -18.1
54 | C=CCn1c(SCC(=O)Nc2ccc(C(=O)OC(C)C)cc2)nnc1-c1cccs1 | 5.07
55 | Cc1cccc(C)c1NC(=O)CN(C)C(=O)CC1CC2CCC1C2 (centres unmarked) | 5.85
56 | CC(C)[C@H](NC(=O)C1CC(=O)N(c2ccc(F)cc2)C1)C(=O)N1CCCCC1 (some centres unmarked) | 7.29
57 | CCCCc1ccc(NC(=O)c2ccc(NS(C)(=O)=O)cc2)cc1 | 20
58 | S=c1[nH]nc2nnc3ccccc3n12 | 16.8
59 | COc1ccc(OCCC(=O)Nc2nccs2)cc1 | -0.445
60 | COc1cc(/C=N/NC(=O)c2sc3ccccc3c2Cl)ccc1OC(=O)c1ccc([N+](=O)[O-])cc1 | 12.3
61 | O=S(=O)(c1cc(Cl)ccc1Br)N1CCOCC1 | -11.1
62 | CC1CC(=O)Nc2ccccc2N1S(=O)(=O)c1ccc(F)cc1F (centres unmarked) | 10
63 | CC1=C(C(=O)OC(C)C)C(/C=C/c2ccccc2)NC(=O)N1 (centres unmarked) | 13.1
64 | CCCCNC(=O)c1cc(C)nn1-c1ccccc1 | 11.4
65 | COc1ccccc1NC(=O)CSc1nc2c(sc3ccccc32)c(=O)n1CCN(C)C.Cl | 11.5
66 | CCOc1ccccc1-n1c(SCC(=O)Nc2nccs2)nnc1-c1ccoc1C | -5.08
67 | CCCS(=O)(=O)NCCc1cc2c(OC)ccc(OC)c2[nH]c1=O | -0.0782
68 | Cc1ccc(CCNC(=O)C2CCN(S(=O)(=O)c3ccc4c(c3)NC(=O)C(C)S4)CC2)cc1 (centres unmarked) | -2.94
69 | C#CCNC(=O)c1cccn1-c1ncc(C(F)(F)F)cc1Cl | 3.43

Row | Structure (SMILES) | hERG current change (%, negative = inhibition) at 10uM [%]
70 | CC1CCCCN1CCCNC(=O)C1CCN(c2nc3ccccc3o2)CC1 (centres unmarked) | -1.61
71 | CCC(C)C1Nc2ccc(C(=O)NCc3ccc4c(c3)OCO4)cc2NC1=O (centres unmarked) | 11.9
72 | Cc1ccc(C)c2c1cc(C)c1nnc(SCC(=O)N3CCCc4ccccc43)n12 | -14.7
73 | Cc1cc(/C=C2\C(=O)NC(=O)N(c3cccc(F)c3)C2=O)c(C)n1-c1ccc(C(=O)O)c(Cl)c1 | 5.98
74 | COc1ccc(CC(C(=O)Nc2cc(C)ccc2C)/C(N)=N/O)cc1 (centres unmarked) | 9.2
75 | Cc1ccccc1-c1nc(CN2CCC(C(=O)NCC3CCCO3)CC2)c(C)o1 (centres unmarked) | -54.5
76 | CN1C(=O)/C(=C/c2ccccc2OCc2ccc(F)cc2)N(C)C1=S | 23.3
77 | CC(NC(=O)Cc1ccc(Br)cc1)c1ccccc1 (centres unmarked) | 1.05
78 | COc1ccc(CCC(=O)NCc2ccc3c(c2)OCO3)cc1 | -8.84
79 | CCCCCN(C(=O)NC(=O)Nn1cnnc1)S(C)(=O)=O | -3.72
80 | O=C1C2C3C=CC(CC3)C2C(=O)N1/N=C/c1c[nH]c2ccccc12 (centres unmarked) | 24.4
81 | Cn1cc(Br)c(-c2cccc(N3C(=O)CC(C)(C)CC3=O)c2)n1 | 8.75
82 | COC(=O)[C@H](Cc1ccccc1)NC(=O)N1CCCCC1 | 9.93
83 | O=C(O)CNC(=O)CC1S/C(=N/N=C2/NC(=O)CS2)NC1=O (centres unmarked) | 21.9
84 | O=C(CN1C(=O)C(=O)c2ccccc21)NC1CCCCC1 | -2.45
85 | CCOc1ccc(-n2c(C)c(C(C)=O)c3cc(OCC(N)=O)ccc32)cc1 | -13.9
86 | Cc1ccc(N(C(=O)c2cnccn2)C(C(=O)NC2CCCCC2)c2ccc(O)cc2)cc1 (centres unmarked) | -13.3
87 | COc1ccccc1CNC(=O)COC(=O)COc1ccccc1F | -4.34
88 | CC(C)c1nc(C(=O)N2CCc3c([nH]c4ccccc34)C2c2ccccn2)cs1 (centres unmarked) | 2.79
89 | O=C(COc1cc(Cl)c(Cl)cc1Cl)Nc1cccc(O)c1 | 14.5
